# This is one part of the list.
# B1: Q9UKT9 (peptide)
# chain: FWCPVCGASFTQKGNLLRHIKL
# B2: Q9UKT9 (peptide)
# chain: FTCPICGRAFTQKGNLLRHIKL
# B3: Q9UKT9 (peptide)
# chain: FGCEICGRWFTQKGNLLRHIKL
# B4: Q9UKT9 (peptide)
# chain: FSCNQCGRSFTQKGNLLRHIKL
# B5: Q9UKT9 (peptide)
# chain: FLCPICGRWFTQKGNLLRHIKL
# B6: Q9UKT9 (peptide)
# chain: FMCDQCGAHFTQKGNLLRHIKL
# B7: Q9UKT9 (peptide)
# chain: FACPVCGANFTQKGNLLRHIKL
# B8: Q9UKT9 (peptide)
# chain: FICNQCGHFFTQKGNLLRHIKL
# B9: Q9UKT9 (peptide)
# chain: FKCNQCGHHFTQKGNLLRHIKL
# B10: Q9UKT9 (peptide)
# chain: FICEICGHLFTQKGNLLRHIKL
# B11: Q9UKT9 (peptide)
# chain: FWCDQCGAYFTQKGNLLRHIKL
# B12: Q9UKT9 (peptide)
# chain: FWCDVCGALFTQKGNLLRHIKL
# B13: Q9UKT9 (peptide)
# chain: FYCEICGHSFTQKGNLLRHIKL
# B14: Q9UKT9 (peptide)
# chain: FACPICGAAFTQKGNLLRHIKL
# B15: Q9UKT9 (peptide)
# chain: FRCPVCGACFTQKGNLLRHIKL
# B16: Q9UKT9 (peptide)
# chain: FNCPQCGACFTQKGNLLRHIKL
# B17: Q9UKT9 (peptide)
# chain: FICPVCGANFTQKGNLLRHIKL
# B18: Q9UKT9 (peptide)
# chain: LTCPICGFLCTQKGNLLRHIKL
# B19: Q9UKT9 (peptide)
# chain: LLCEICGFPCTQKGNLLRHIKL
# B20: Q9UKT9 (peptide)
# chain: FICEICGHCFTQKGNLLRHIKL
# B21: Q9UKT9 (peptide)
# chain: FNCNQCGAMFTQKGNLLRHIKL
# B22: Q9UKT9 (peptide)
# chain: FLCDICGAQFTQKGNLLRHIKL
# B23: Q9UKT9 (peptide)
# chain: FTCEICGHYFTQKGNLLRHIKL
# B24: Q9UKT9 (peptide)
# chain: FACDICGAIFTQKGNLLRHIKL
# B25: Q9UKT9 (peptide)
# chain: FVCEICGHQFTQKGNLLRHIKL
# B26: Q9UKT9 (peptide)
# chain: FHCPVCGAYFTQKGNLLRHIKL
# B27: Q9UKT9 (peptide)
# chain: FYCPICGHRFTQKGNLLRHIKL
# B28: Q9UKT9 (peptide)
# chain: FNCPICGHPFTQKGNLLRHIKL
# B29: Q9UKT9 (peptide)
# chain: FACNQCGRDFTQKGNLLRHIKL
# B30: Q9UKT9 (peptide)
# chain: FICPICGHYFTQKGNLLRHIKL
# B31: Q9UKT9 (peptide)
# chain: FCCPQCGAWFTQKGNLLRHIKL
# B32: Q9UKT9 (peptide)
# chain: FYCEICGRNFTQKGNLLRHIKL
# Molecular target: no compound (DMSO)
# Experiment: log2 fold change of degron read counts, EGFP-low vs EGFP+ sorted cells; higher = lower degron-EGFP level without compound (poor expression or instability)
# Conditions: compound: DMSO control; 18 h
# 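Also: jurkat cells carrying a lentiviral library of mutant zinc finger degrons fused to EGFP plus mCherry, mCherry+ cells FACS sorted, degron abundance counted by next-generation sequencing.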
row,Sequence,log2 fold change of degron read counts
1,B1,0.633
2,B2,-0.384
3,B3,-0.39
4,B4,-0.503
5,B5,1.16
6,B6,-1.49
7,B7,-0.705
8,B8,0.245
9,B9,0.205
10,B10,-0.722
11,B11,0.253
12,B12,0.687
13,B13,-1.38
14,B14,-0.369
15,B15,-0.938
16,B16,-0.819

row,Sequence,log2 fold change of degron read counts
1,B17,0.0773
2,B18,1.21
3,B19,0.384
4,B20,-1.4
5,B21,-0.055
6,B22,-1.09
7,B23,-0.889
8,B24,-0.189
9,B25,-2.92
10,B26,0.484
11,B27,-2.39
12,B28,-0.0382
13,B29,0.153
14,B30,-0.0139
15,B31,0.551
16,B32,-0.949
